This is one part of the list.
Biological target: T1, OsWOX13 (Oryza sativa, UniProt Q5QMM3 1-267)
T1 sequence: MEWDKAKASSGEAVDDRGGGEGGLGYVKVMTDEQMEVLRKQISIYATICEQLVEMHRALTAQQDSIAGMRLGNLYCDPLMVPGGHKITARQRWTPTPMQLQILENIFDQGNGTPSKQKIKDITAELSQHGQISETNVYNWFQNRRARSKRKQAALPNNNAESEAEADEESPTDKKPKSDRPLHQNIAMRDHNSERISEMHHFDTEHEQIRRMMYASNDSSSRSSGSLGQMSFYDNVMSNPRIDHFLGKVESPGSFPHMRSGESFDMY
Assay: protein-binding microarray (RPBM); PBS, 2% BSA, 51.3 ng/ul salmon testes DNA, 50 uM zinc acetate, 200 nM TF, 25 C, 1 h; high values mean tight binding
Conditions: protein: recombinant; tags: N-terminal polyhistidine and DsRed monomer fusion (pET32a); label: CyDye5-dUTP incorporated in the synthesized complementary strand; 3' TTTTT single-stranded linker to array surface; dsDNA, one strand shown
Outline: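 Ni–NTA purification followed expression in E. coli BL21-CodonPlus of transcription factors fused N-terminally to a polyhistidine tag and DsRed. At 200 nM in PBS with 2% BSA, salmon testes DNA and 50 µM zinc acetate, the protein was incubated for 1 h at 25 °C with a custom Agilent array that had been primer-extended with Cy5-dUTP and blocked with 2% BSA. After washing, the array was read on an Axon 4000B scanner. The binding signal is per-feature fluorescence intensity in arbitrary units.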

**Q.** Which binding signal does the source give for “TTCTAATTGCACACAGTATTTGGTAGTAACTGGCATGAGACGGAGTCACCTAGTGCAG” here?
**A.** 12000 fluorescence intensity (a.u.)

**Q.** “ACCACTGATGAATCATCTCAAATTATCATCTGATCAGCGACGGAGTCACCTAGTGCAG” was tested. Which binding signal did it give?
**A.** 11600 fluorescence intensity (a.u.)

**Q.** For “TCCCAATCACATTGTTACAACCAGCCCTAATACAGCATGACGGAGTCACCTAGTGCAG”, which binding signal is on record?
**A.** 6990 fluorescence intensity (a.u.)

**Q.** Which binding signal does the source give for “AAAACAGGTTAAATTACATAATTCAAGTTCTGAAGGGATTCGGAGTCACCTAGTGCAG” here?
**A.** 4420 fluorescence intensity (a.u.)

**Q.** Which binding signal does the source give for “TAGTGATTGGTTTCACAATTAATAATATTGGAATCGAACTCGGAGTCACCTAGTGCAG” here?
**A.** 25000 fluorescence intensity (a.u.)

**Q.** How did the binding signal turn out when “CGTCGTCCAATTAGACAATAATAAAGTGATTTTCGGTTGTCGGAGTCACCTAGTGCAG” was run?
**A.** 8550 fluorescence intensity (a.u.)

**Q.** “ATATCCTGATTAATTACATGAGACGGCTAAAATACAGGGGCGGAGTCACCTAGTGCAG” was tested. Which binding signal did it give?
**A.** 15600 fluorescence intensity (a.u.)

**Q.** “ACGCCTGATTGATCCCCACCCCTATCTCCACTGACTGTGCCGGAGTCACCTAGTGCAG” was tested. Which binding signal did it give?
**A.** 38000 fluorescence intensity (a.u.)

**Q.** Which binding signal does the source give for “TTTGTAATTGTGTCTGCGCAAATGCGATGCCCGTGCGGCCCGGAGTCACCTAGTGCAG” here?
**A.** 10600 fluorescence intensity (a.u.)

**Q.** For “TTAAAATTAATTCCTTAATTATATCACCATTTGGTAGAAACGGAGTCACCTAGTGCAG”, which binding signal is on record?
**A.** 31200 fluorescence intensity (a.u.)

**Q.** For “ATTAGATTAGTCAACACGTATCTCTGCTATCTTAACATGCCGGAGTCACCTAGTGCAG”, which binding signal is on record?
**A.** 16800 fluorescence intensity (a.u.)

**Q.** With “CGGTTTAGTTTATTTACAAAATTTTAATCTACTGCATTGCCGGAGTCACCTAGTGCAG” as the sequence, how does the binding signal read?
**A.** 3900 fluorescence intensity (a.u.)

**Q.** How did the binding signal turn out when “AATCTTGACTGTCTTCATCATTCCCTTGAGCTCTTTATTGCGGAGTCACCTAGTGCAG” was run?
**A.** 7160 fluorescence intensity (a.u.)

**Q.** Which binding signal does the source give for “TTCGGACTGAAATTTTAAAGATTAATCTCTAGGGGTTAGTCGGAGTCACCTAGTGCAG” here?
**A.** 3190 fluorescence intensity (a.u.)

**Q.** For “AATAAATAGCTTATTATAAATTAAATTTTATTTGATGAAACGGAGTCACCTAGTGCAG”, which binding signal is on record?
**A.** 9670 fluorescence intensity (a.u.)

**Q.** Which binding signal does the source give for “CACATATTGATTTCAATTAATCTCACCCTGTTTAAATGTGCGGAGTCACCTAGTGCAG” here?
**A.** 40600 fluorescence intensity (a.u.)

**Q.** For “AATTAATCATCTCCTATCACCGCCCTAATCCTCTACAGTACGGAGTCACCTAGTGCAG”, which binding signal is on record?
**A.** 21100 fluorescence intensity (a.u.)

**Q.** With “AAAATAGACTAATTATTGAACGCACCCATACAAAAGTGTGCGGAGTCACCTAGTGCAG” as the sequence, how does the binding signal read?
**A.** 26500 fluorescence intensity (a.u.)

**Q.** With “CCAAATTTGATAAAGTTTGACCACTCGGCCCTGTAGTCAACGGAGTCACCTAGTGCAG” as the sequence, how does the binding signal read?
**A.** 14500 fluorescence intensity (a.u.)

**Q.** Which binding signal does the source give for “TGCCAATTAGCTAACTTCTAGATGGACAACGATTGAATCACGGAGTCACCTAGTGCAG” here?
**A.** 4870 fluorescence intensity (a.u.)

**Q.** “TCTCATACAATCAACAACCTTAAACACATCAGCTCTAGTACGGAGTCACCTAGTGCAG” was tested. Which binding signal did it give?
**A.** 4160 fluorescence intensity (a.u.)

**Q.** How did the binding signal turn out when “ATCATAATATGAAATATGGTAATTACCATAAGAATAAAAGCGGAGTCACCTAGTGCAG” was run?
**A.** 3580 fluorescence intensity (a.u.)

**Q.** “GGGTGTCGCATGATTAAATAAATCGGAATTACTAAATGGCCGGAGTCACCTAGTGCAG” was tested. Which binding signal did it give?
**A.** 7010 fluorescence intensity (a.u.)

**Q.** How did the binding signal turn out when “GAAAACAATTGAGATTTAATCGGTAATATATTTAGTTAAGCGGAGTCACCTAGTGCAG” was run?
**A.** 4920 fluorescence intensity (a.u.)

**Q.** “CGCGTAAATTAAATCGGAGTTAAATTAGTGATGCCGCCAACGGAGTCACCTAGTGCAG” was tested. Which binding signal did it give?
**A.** 20500 fluorescence intensity (a.u.)

**Q.** With “AGCCAAAGATGGTGATTGATGCACATGGTATGGTCGGACGCGGAGTCACCTAGTGCAG” as the sequence, how does the binding signal read?
**A.** 17800 fluorescence intensity (a.u.)

**Q.** Which binding signal does the source give for “GAGGGAGGGAAATTAATTGATGATATCCGGTTTGGTGCCCCGGAGTCACCTAGTGCAG” here?
**A.** 19100 fluorescence intensity (a.u.)

**Q.** How did the binding signal turn out when “TATTTAAATAGAAATAAAATGATTTATTCAAATGTTATCGCGGAGTCACCTAGTGCAG” was run?
**A.** 6230 fluorescence intensity (a.u.)

**Q.** How did the binding signal turn out when “GCCATCCATATTATAATTGAAAATAAATACTTATCCCTTTCGGAGTCACCTAGTGCAG” was run?
**A.** 7980 fluorescence intensity (a.u.)

**Q.** “GTTTTGGATGATTAACTTTTGTGAATACTCATATCTCTTACGGAGTCACCTAGTGCAG” was tested. Which binding signal did it give?
**A.** 3870 fluorescence intensity (a.u.)

**Q.** “GATCATCAATATTGATTGAGAATATTTCACGACTGATTTGCGGAGTCACCTAGTGCAG” was tested. Which binding signal did it give?
**A.** 40900 fluorescence intensity (a.u.)

**Q.** For “TTGCTTACTCACCGAGTCAATCATGACCAACCTGTCACATCGGAGTCACCTAGTGCAG”, which binding signal is on record?
**A.** 5450 fluorescence intensity (a.u.)

**Q.** How did the binding signal turn out when “TTGATTAATTTGACGTCGATGCTACTAATAGTTAACCTTCCGGAGTCACCTAGTGCAG” was run?
**A.** 54200 fluorescence intensity (a.u.)

**Q.** “CCAACTAATTGTTTCTCAAAATTTTAAACTCCCCGAATACCGGAGTCACCTAGTGCAG” was tested. Which binding signal did it give?
**A.** 26400 fluorescence intensity (a.u.)

**Q.** Which binding signal does the source give for “ATCGTTGTTGGATTGATTGCACGAGAAAACAGAAGAAGGGCGGAGTCACCTAGTGCAG” here?
**A.** 27700 fluorescence intensity (a.u.)

**Q.** With “CCAATAATGATAAATCCCGTGACGTAGTATACGCCTCTGTCGGAGTCACCTAGTGCAG” as the sequence, how does the binding signal read?
**A.** 7020 fluorescence intensity (a.u.)

**Q.** Which binding signal does the source give for “AATTTAATTGTACTTATCTCACATGATACCTTCGATGTTGCGGAGTCACCTAGTGCAG” here?
**A.** 24100 fluorescence intensity (a.u.)

**Q.** Which binding signal does the source give for “CAAATTTGCCAATTATGACAAAACAACATAAGTTAGAGTTCGGAGTCACCTAGTGCAG” here?
**A.** 25200 fluorescence intensity (a.u.)

**Q.** “AGGATGATGAGATGGAATGATGATAAGTGCCATGAAGCCTCGGAGTCACCTAGTGCAG” was tested. Which binding signal did it give?
**A.** 11600 fluorescence intensity (a.u.)

**Q.** How did the binding signal turn out when “TTTAATTGTGTTTTATATAACTATAAAACATCAAACAAACCGGAGTCACCTAGTGCAG” was run?
**A.** 16600 fluorescence intensity (a.u.)

**Q.** “AACCCTCTAATTAACACCCTTTCATCTTGTACTTTAATTTCGGAGTCACCTAGTGCAG” was tested. Which binding signal did it give?
**A.** 9450 fluorescence intensity (a.u.)

**Q.** Which binding signal does the source give for “ACTAATAATAAAACAAATTACATATTCCGACGGTAAACTGCGGAGTCACCTAGTGCAG” here?
**A.** 8990 fluorescence intensity (a.u.)

**Q.** Which binding signal does the source give for “TATTCATATAATCATATTGATGATTTCATAGGGTATAGTCCGGAGTCACCTAGTGCAG” here?
**A.** 9080 fluorescence intensity (a.u.)

**Q.** Which binding signal does the source give for “ACCCCGCGCTAATTTAATCCGCTGCCTTCCTGGAAAGGGACGGAGTCACCTAGTGCAG” here?
**A.** 6260 fluorescence intensity (a.u.)

**Q.** For “CTAATTAATCTATAATTAGAGAATGTTTACTGTAGCATCACGGAGTCACCTAGTGCAG”, which binding signal is on record?
**A.** 34400 fluorescence intensity (a.u.)

**Q.** With “TTAAATCGAAATCCCGCAGTTAAATCAGAGATTTATGCAGCGGAGTCACCTAGTGCAG” as the sequence, how does the binding signal read?
**A.** 3470 fluorescence intensity (a.u.)

**Q.** With “CTCTGTTGACAGCGAGGTGCTAGCACAATCTTTTAGAGGTCGGAGTCACCTAGTGCAG” as the sequence, how does the binding signal read?
**A.** 3510 fluorescence intensity (a.u.)

**Q.** With “AAGATTTAATTACAACGAATTTAATGGTGTAATCGGATCACGGAGTCACCTAGTGCAG” as the sequence, how does the binding signal read?
**A.** 38400 fluorescence intensity (a.u.)

**Q.** For “TTTGATAATTAGCATATCTTTAGCTGATGGTTCTAGCTTCCGGAGTCACCTAGTGCAG”, which binding signal is on record?
**A.** 33100 fluorescence intensity (a.u.)

**Q.** How did the binding signal turn out when “CTTTCATTACTGAAAATTGTCACTAATGAACTCGAGAACGCGGAGTCACCTAGTGCAG” was run?
**A.** 5720 fluorescence intensity (a.u.)

**Q.** How did the binding signal turn out when “AAAATTGCTGACTAGACTGCCACGTAGACCAAAACTACTTCGGAGTCACCTAGTGCAG” was run?
**A.** 6760 fluorescence intensity (a.u.)

**Q.** “TGACTGATGTAATATTATATTATCTATGAACCATGTTATTCGGAGTCACCTAGTGCAG” was tested. Which binding signal did it give?
**A.** 3370 fluorescence intensity (a.u.)

**Q.** With “CCAATCAATTAATCAACCAAAAGAAACATTCCCCAACCCACGGAGTCACCTAGTGCAG” as the sequence, how does the binding signal read?
**A.** 30800 fluorescence intensity (a.u.)

**Q.** For “TAATAATTGAATTGGGGAATAATTAAAATCATCTATCTAACGGAGTCACCTAGTGCAG”, which binding signal is on record?
**A.** 46100 fluorescence intensity (a.u.)
